Experimental data taken from PubChem BioAssay AID463173 (ICCB-Longwood Screening Facility, Harvard Medical School, 2010).
Hit rate of the full screen: of about 52,000 compounds, about 1,700 (3.3%) were called active. No stated cut-off is given here; in the data, active means survival mostly below about 52% (no sharp cut-off); inactive means mostly above about 56%. The list shows a part of the results.

system: Wild type; assay: S. aureus survival, RN4220 and DeltatarO strains – OD600, teichoic acid synthesis inhibitors, primary screen (AID 463173); conditions: S. aureus RN4220 wild type/DeltatarO growth, OD600, 18 h, hits give low values, screened at 18.75 µg/mL (by protocol)

Question: Which survival does the source give for Cc1nc(-n2nc(C)c(Cc3ccccc3Cl)c2C)sc1C(=O)N1CCC(C)CC1 here?
Answer: inactive: 79%

Question: Which survival does the source give for Cc1cccc(-n2ncc(C(=O)N3CCc4ccccc4C3)c2C2CCN(C(=O)OC(C)(C)C)CC2)c1 here?
Answer: inactive: 135%

Question: How did the survival turn out when COc1ccc(C(CN)c2c[nH]c3ccccc23)cc1 (stereo not drawn) was run?
Answer: inactive: 114%

Question: How did the survival turn out when Cc1oc2ccc(O)c(CN3CCCCCC3)c2c1C(=O)Nc1cccc(Cl)c1C was run?
Answer: inactive: 94%

Question: CCSc1ncc(Cl)c(C(=O)N(Cc2ccccc2Cl)C2CCS(=O)(=O)C2)n1 (stereo not drawn) was tested. Which survival did it give?
Answer: inactive: 94%

Question: Which survival does the source give for O=C(C1CCN(S(=O)(=O)c2cccs2)CC1)N1CCN(c2cccc(Cl)c2)CC1 here?
Answer: inactive: 92%

Question: CCN(CC)CCCNC(=O)c1ccc2c(c1)N(Cc1c(F)cccc1Cl)C(=O)c1ccccc1S2 was tested. Which survival did it give?
Answer: inactive: 139%

Question: Cc1nn2c(=O)cc(COC(=O)c3cccc(NC(=O)COc4ccc(C)c(C)c4)c3)nc2s1 was tested. Which survival did it give?
Answer: inactive: 97%

Question: Cc1c(-c2nsc(NC(=O)c3cccs3)n2)nnn1-c1ccc(Cl)cc1 was tested. Which survival did it give?
Answer: inactive: 72%

Question: How did the survival turn out when N#Cc1c[nH]n2c(NC3CCCCC3)c(-c3ccccc3F)nc12 was run?
Answer: inactive: 80%

Question: For COCCSc1nnc(NC(=O)C2CCCO2)s1 (stereo not drawn), which survival is on record?
Answer: inactive: 116%

Question: COC(=O)c1nnn(CC(=O)Nc2cc(F)ccc2F)c1C(=O)OC was tested. Which survival did it give?
Answer: inactive: 130%

Question: For CSc1ncc2c(n1)-c1ccccc1N(Cc1ccc(F)cc1)S2(=O)=O, which survival is on record?
Answer: inactive: 131%

Question: For O=C(NCCc1ccc(Cl)cc1)C(=O)NCC(c1ccco1)S(=O)(=O)c1cccs1 (stereo not drawn), which survival is on record?
Answer: active: -3%

Question: COc1ccc(OC)c(CNS(=O)(=O)c2ccc3[nH]c4c(c3c2)CCCCC4)c1 was tested. Which survival did it give?
Answer: inactive: 71%

Question: CCC(=O)N1CCc2cc(S(=O)(=O)NC(CC(C)C)C(=O)NCCc3cccc(C)c3)ccc21 (stereo not drawn) was tested. Which survival did it give?
Answer: inactive: 82%

Question: How did the survival turn out when CCOc1nc(NC)nc(N(C#N)CN2C(=O)c3ccccc3C2=O)n1 was run?
Answer: inactive: 107%

Question: S=c1sc2c(s1)SC1C(CC3C4C=CC(C4)C31)S2 (stereo not drawn) was tested. Which survival did it give?
Answer: inactive: 100%

Question: COc1cccc(NC(=O)CSCc2cc(=O)c3ccc(C)c(C)c3[nH]2)c1 was tested. Which survival did it give?
Answer: inactive: 64%

Question: With O=c1ccc2cc(S(=O)(=O)NCc3ccc(Br)cc3)ccc2[nH]1 as the molecule, how does the survival read?
Answer: inactive: 99%

Question: For Cc1ccc(NC(=O)CSc2nccn2Cc2ccco2)cc1Cl, which survival is on record?
Answer: inactive: 82%

Question: O=C(NCC1CCCCC1)C1CCCN(c2ncccn2)C1 (stereo not drawn) was tested. Which survival did it give?
Answer: inactive: 108%

Question: Which survival does the source give for O=S(=O)(NC1CCc2ccccc21)c1ccc(S(=O)(=O)N2CCCC2)cc1 (stereo not drawn) here?
Answer: inactive: 116%

Question: How did the survival turn out when COc1ccc(N(CCC#N)S(=O)(=O)c2cccc3nsnc23)cc1 was run?
Answer: inactive: 111%

Question: With Cc1cc(NC(=O)COCc2cc(-c3ccc(F)cc3)on2)ccc1Br as the molecule, how does the survival read?
Answer: inactive: 82%

Question: With COc1ccc(-c2onc(C)c2C)cc1S(=O)(=O)NCC(C)c1ccccc1 (stereo not drawn) as the molecule, how does the survival read?
Answer: inactive: 55%

Question: How did the survival turn out when CCNc1ccc(-c2nc(-c3ccccn3)no2)cc1[N+](=O)[O-] was run?
Answer: inactive: 93%

Question: O=C(CCCCn1c(=O)c2ccccc2n(Cc2ccccc2Cl)c1=O)NCc1ccc2c(c1)OCO2 was tested. Which survival did it give?
Answer: inactive: 91%

Question: CCCn1c2ccccc2c2cnn(CC(=O)N3CCN(c4ccccc4F)CC3)c(=O)c21 was tested. Which survival did it give?
Answer: active: -6%

Question: Which survival does the source give for CCOc1ccc(CCNS(=O)(=O)c2c(C)nc3scc(C)n3c2=O)cc1OCC here?
Answer: inactive: 76%

Question: With Cc1ccc(C)c(NC(=O)N2CCC(CN3CCOCC3)CC2)c1 as the molecule, how does the survival read?
Answer: inactive: 135%

Question: For COc1cccc(N2CCN(C(=O)CCCn3c(=O)[nH]c4ccc(Br)cc4c3=O)CC2)c1, which survival is on record?
Answer: inactive: 53%

Question: Which survival does the source give for Cc1ccc(Nc2c(-c3ccc(Cl)cc3)nc3sccn23)c(C)c1 here?
Answer: inactive: 63%

Question: How did the survival turn out when CCOc1ccc(CNC(=O)c2ccc3nc(CC)c(CC)nc3c2)cc1 was run?
Answer: inactive: 128%

Question: For CC(C)Oc1cccc(C(=O)Nc2ccc3oc(-c4cccc(Cl)c4)nc3c2)c1, which survival is on record?
Answer: inactive: 56%

Question: Which survival does the source give for Cc1cc(C)n(-c2nc3ccccc3nc2Nc2ccc(Cl)cc2Cl)n1 here?
Answer: inactive: 86%

Question: Which survival does the source give for CCn1c(=O)c2cc(C(=O)NCCCOC)sc2c2ccccc21 here?
Answer: inactive: 120%

Question: Which survival does the source give for CC(=O)N1CCCc2cc(S(=O)(=O)NCc3cccc(C)c3)ccc21 here?
Answer: inactive: 70%

Question: COc1ccc(CNC(=O)CCC2N=C3c4ccccc4N=C(SCc4cccc(F)c4)N3C2=O)cc1 (stereo not drawn) was tested. Which survival did it give?
Answer: inactive: 121%

Question: With CCCN(CCC)C(=O)Cn1nnc2sc(-c3ccccc3)cc2c1=O as the molecule, how does the survival read?
Answer: inactive: 87%

Question: How did the survival turn out when CCc1ccc(N2CC34C=CC(O3)C(C(=O)O)C4C2=O)cc1 (stereo not drawn) was run?
Answer: inactive: 103%

Question: For CCC(c1nnnn1CCOC)N1CCN(c2cccc(C(F)(F)F)c2)CC1 (stereo not drawn), which survival is on record?
Answer: inactive: 102%

Question: For O=c1c2cnn(-c3ccc(F)cc3)c2ncn1Cc1cccc(Cl)c1, which survival is on record?
Answer: inactive: 82%

Question: How did the survival turn out when Cc1nn2c(=O)cc(COC(=O)c3cccc(NC(=O)COc4ccccc4Cl)c3)nc2s1 was run?
Answer: inactive: 94%

Question: How did the survival turn out when Cc1ccc(C(=O)c2cn(Cc3cccc(C)c3)c3nc(C)ccc3c2=O)cc1 was run?
Answer: inactive: 54%

Question: For O=C(CNS(=O)(=O)c1ccccc1)N1CCCC1, which survival is on record?
Answer: inactive: 102%

Question: Which survival does the source give for CC(C)Oc1ccc(CNS(=O)(=O)c2ccc3c(c2)C(C)(C)C(=O)N3C)cc1 here?
Answer: inactive: 82%

Question: How did the survival turn out when Cc1ccc(NC(=O)CSc2ncc(S(=O)(=O)c3ccc(C(C)C)cc3)c(=O)[nH]2)cc1C was run?
Answer: inactive: 120%

Question: With CCOc1ccccc1CN(CCc1ccc2c(c1)OCO2)Cc1ccccn1 as the molecule, how does the survival read?
Answer: inactive: 104%

Question: Which survival does the source give for Cc1ccc(CNC(=O)c2nc(SCc3ccc(F)cc3)ncc2Cl)cc1 here?
Answer: inactive: 91%

Question: Which survival does the source give for COc1ccc(NC(=O)Cn2c(=O)n(-c3ccccc3)c(=O)c3c4c(sc32)CCCC4)c(OC)c1 here?
Answer: inactive: 87%

Question: CCOC(=O)/C(C#N)=C\C1=C(N2CCCC2)CC(C)(C)OC1 was tested. Which survival did it give?
Answer: inactive: 97%

Question: How did the survival turn out when Cc1cc(C)n2c(Nc3ccc4c(c3)OCCO4)c(-c3ccc(Cl)cc3)nc2n1 was run?
Answer: inactive: 143%

Question: With COc1ccc(S(=O)(=O)n2nc(C)c(S(=O)(=O)N3CCCCCC3)c2C)cc1 as the molecule, how does the survival read?
Answer: inactive: 60%

Question: With Cc1ccccc1NC(=O)NCCCN1CCN(c2ccccc2F)CC1 as the molecule, how does the survival read?
Answer: inactive: 134%

Question: How did the survival turn out when COC(=O)c1cc(S(=O)(=O)N2CCN(c3ccc(OC)cc3)CC2)c[nH]1 was run?
Answer: inactive: 85%

Question: For Cc1cc(N2CCCCC2)nc2ccc(NC(=O)/C=C/c3ccc(OC(C)C)cc3)cc12, which survival is on record?
Answer: inactive: 74%

Question: With CCCCOc1ccc(C2=NC(c3cccs3)=Nc3ccc(CC)cc3N2)cc1 as the molecule, how does the survival read?
Answer: inactive: 81%
